Source: PubChem BioAssay AID2147 (National Center for Advancing Translational Sciences (NCATS), 2009)
About 3,600 (1.6%) of roughly 230,000 compounds were called active. Inconclusive results, whose numbers are uncertain, are shown with a selection of clear calls. Calls follow the shape of the dose curve; as a rule, active = well fitted inhibition curve with a large enough effect (not every such curve was filed as active); inconclusive = small, poorly fitted or top-dose-only effect, or another doubt; inactive = no such curve, though single readings can be large or run the other way. Potencies beside an inconclusive call are fits to weak or partial responses and may not hold up.

biological target: Lysine-specific demethylase 4E (Homo sapiens) (UniProt B2RXH2); assay: qHTS Assay for Inhibitors of Human Jumonji Domain Containing 2E (JMJD2E); settings: JMJD2E catalytic domain, FDH-coupled NADH fluorescence (FDH is formaldehyde dehydrogenase); series mostly up to 57.1 µM; activity change, negative = inhibition: at the top concentration
Also: nearly all actives have a fitted effect of over 50% in size.
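For activity change, negative = inhibition in this document: 0% = wells with enzyme and -100% = buffer wells without enzyme.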
Potency is read from the fitted curve at half-maximal effect; tags tell the direction and shape of the fitted curve.

UniProt B2RXH2, sequence (B2RXH2 whole entry, looked up, the tested form may be a part): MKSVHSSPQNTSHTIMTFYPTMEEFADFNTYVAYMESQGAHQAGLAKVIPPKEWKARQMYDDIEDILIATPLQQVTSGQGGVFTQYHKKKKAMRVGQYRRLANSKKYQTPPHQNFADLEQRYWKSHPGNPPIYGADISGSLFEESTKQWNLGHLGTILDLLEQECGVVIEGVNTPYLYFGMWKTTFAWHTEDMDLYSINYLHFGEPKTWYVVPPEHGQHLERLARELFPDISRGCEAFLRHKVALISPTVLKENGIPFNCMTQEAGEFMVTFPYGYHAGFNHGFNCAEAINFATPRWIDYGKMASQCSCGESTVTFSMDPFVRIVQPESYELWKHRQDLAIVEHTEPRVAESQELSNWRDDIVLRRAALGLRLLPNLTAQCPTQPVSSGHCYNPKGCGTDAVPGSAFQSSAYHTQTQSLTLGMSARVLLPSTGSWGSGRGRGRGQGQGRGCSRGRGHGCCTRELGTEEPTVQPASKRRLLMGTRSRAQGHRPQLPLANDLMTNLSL

| SMILES | Potency | activity change, negative = inhibition |
| --- | --- | --- |
| CCc1ccc2oc(-c3cc(N)ccc3O)nc2c1 | inconclusive: 28.2 µM [inhibitor, single point] | – |
| CCOc1ccc(CNc2ccc3c(c2)ncn3C)cc1 | inconclusive: 31.6 µM [inhibitor, partial curve] | – |
| Cc1cc(C(=O)NCC(=O)O)c(C)o1 | – | inactive: 3.79% |
| CC(Oc1cccc(F)c1)c1ccnc2nc(/N=C/N(C)C)nn12 (configuration not stated) | inconclusive: 22.4 µM [inhibitor, partial curve] | – |
| CCOc1cc(/C=N/NC(=O)CN(CCc2ccccc2)S(=O)(=O)c2ccc(NC(C)=O)cc2)ccc1O | inconclusive: 39.8 µM [inhibitor, single point] | – |
| O=C(Cc1ccccc1)NNC(=O)c1ccc(NC(=O)c2ccccc2)cc1 | inconclusive: 39.8 µM [inhibitor, single point] | – |
| O=C(Cc1cccs1)N1CCN(c2ccc([N+](=O)[O-])cc2)CC1 | – | inactive: -0.765% |
| O=c1[nH]nc(SCc2nc3ccccc3s2)n1C1CC1 | inconclusive: 31.6 µM [inhibitor, single point] | – |
| CC(C)c1ccc(NC(=O)c2csnn2)cc1 | – | inactive: 0.344% |
| COc1ccc(Cc2c(O)nc(SCC(=O)NC(C)(C)C)[nH]c2=O)cc1 | – | inactive: -3.15% |
| O=C1/C(=C/c2ccc(O)cc2)SC(=S)N1Cc1cccnc1 | – | inactive: -1.55% |
| OCc1ccc(-c2nn(Cc3ccccc3)c3ccccc23)o1 | inconclusive: 31.6 µM [inhibitor, partial curve] | – |
| O=C(/C=C/c1ccc2c(c1)OCO2)N1CCN(c2ccccc2F)CC1 | inconclusive: 39.8 µM [inhibitor, single point] | – |
| CC1CCCN(Cc2c(O)ccc3c(=O)c(-c4nc5ccccc5s4)c(N)oc23)C1 (configuration not stated) | inconclusive: 20 µM [inhibitor, partial curve] | – |
| O=C1N=C(N2CCCC2)S/C1=C\C=C\c1ccccc1 | – | inactive: -27.5% |
| CCN(CC)c1ccc(NC(=O)COC(=O)c2cccs2)cc1 | – | inactive: -0.0938% |
| O=c1c2[nH]c3ccccc3c2ncn1Cc1ccccn1 | inconclusive: 25.1 µM [inhibitor, single point] | – |
| Cc1cc(C)n2nc(SCC(=O)Nc3ccccc3)nc2n1 | – | inactive: -2.37% |
| CC(C)(C)OC(=O)NCCc1nnc(S(=O)(=O)Cc2ccc(Cl)cc2Cl)o1 | – | inactive: -2.29% |
| Cc1cc[n+](-c2[nH]c(=O)sc2/C=N/NC([S-])=Nc2ccccc2)cc1C | – | inactive: -2.11% |
| COc1ccc(/C=N/NC(=O)c2cc(C(C)(C)C)[nH]n2)cc1COc1ccc(F)cc1F | inconclusive: 39.8 µM [inhibitor, single point] | – |
| CN(C)c1ccc(/C=N/NC(=O)CSc2ccccn2)cc1 | inconclusive: 35.5 µM [inhibitor, single point] | – |
